Assay results from paper PMC9625839 (Journal of medicinal chemistry, 2021).

Target: high-affinity mouse IL2 receptor on CTLL-2 cells (mouse (endogenous in CTLL-2))
Assay: cell-based or functional assay

B1: recombinant interleukin 2 (rIL2) (ligand)
chain: not shown
CTLL-2 cell proliferation (WST-1 absorbance), EC50: 0.42 ng/mL

B2: TLHE-rIL2 (rIL2 conjugated at cysteine 3 to the small-molecule transthyretin ligand TLHE (3)) (ligand)
chain: not shown
modifications: cysteine 3 conjugated to TLHE (3) by thiol-maleimide reaction (+837.43)
CTLL-2 cell proliferation (WST-1 absorbance), EC50: 0.51 ng/mL
CTLL-2 cell proliferation, EC50 in the absence of TTR (panel C): 0.56 ng/mL
CTLL-2 cell proliferation, EC50 in the presence of 50 nM TTR: 0.5 ng/mL
